Data as given in PubChem BioAssay AID588855 (National Center for Advancing Translational Sciences (NCATS), 2011).
Among all 410,000 compounds or so, about 5,000 (1.2%) were called active. The shares of active, inactive and inconclusive entries below differ from those in the screen. Calls come from the whole dose curve; as a rule, active = well fitted inhibition curve with a large enough effect; inconclusive = small, poorly fitted or top-dose-only effect; inactive = no such curve, though single readings can be large or run the other way. Potencies of inconclusive entries are doubtful fits and often do not repeat.

assay: qHTS for Inhibitors of TGF-b; conditions: HepG2 CAGA-GFP TGF-b/SMAD3 reporter, GFP fluorescence, 18 h, TGF-beta stimulated, 500 pg/mL final; series mostly up to 46.1 µM; activity, negative = inhibition: at the top concentration; note: nearly all actives have a fitted effect of over 65% in size
Summary of the method: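 Read-out: total well GFP (ex488/em500-530) summed from mean per-cell fluorescence. Cells: HEPG2 CAGA-GFP, 1% FBS DMEM, 18 h at 37 degrees C with 500 pg/mL final TGF-beta. Unstimulated wells served as the full-inhibition control; stimulated DMSO wells = 0%.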
% is set by controls: 0 for no effect and ±100 for the full control effect; potency is the fitted concentration of half-maximal effect; tags give direction and shape of the fitted curve.

Question: For `COC(=O)C1=C(C)NC(=O)NC1c1ccc2ccccc2c1` (configuration not stated), which “activity, negative = inhibition” value is on record?
Answer: inactive: 19.7%

Question: Which Potency does the source give for `CCc1ccc(NC(=O)Cn2c(=O)c3cccn3c3ccccc32)cc1` here?
Answer: inconclusive: 15.8 µM [inhibitor, single point]

Question: Which Potency does the source give for `CCc1cccc(C)c1NC(=O)CN1CCN(Cc2ccccc2Cl)S1(=O)=O` here?
Answer: inconclusive: 22.4 µM [inhibitor, single point]

Question: For `CC(NC(=O)CC1CCCCC1)c1ccccc1` (configuration not stated), which Potency is on record?
Answer: inconclusive: 0.141 µM [inhibitor, full curve, poor fit]

Question: For `CCc1cccc(NC(=O)c2cnc(N3CCOCC3)c3ccccc23)c1`, which Potency is on record?
Answer: inconclusive: 11.2 µM [inhibitor, partial curve, poor fit]

Question: For `CS(=O)(=O)N(CC(=O)O)c1ccc(C23CC4CC(CC(C4)C2)C3)cc1`, which “activity, negative = inhibition” value is on record?
Answer: inactive: -27.5%

Question: For `CCc1cc(C(c2ccc(F)cc2)N2CCOCC2)c(NC(=O)c2ccccc2)s1` (configuration not stated), which Potency is on record?
Answer: inconclusive: 31.6 µM [inhibitor, single point]

Question: With `Cc1c(C)c(C)c(S(=O)(=O)NCCC(=O)N2CCN(Cc3ccc(C#N)cc3)CC2)c(C)c1C` as the compound, how does the Potency read?
Answer: inconclusive: 11.2 µM [inhibitor, partial curve]

Question: Which “activity, negative = inhibition” value does the source give for `CCn1c(SCC(=O)Nc2nnc(C)s2)nc2c(c1=O)SC(C)C2` (configuration not stated) here?
Answer: inactive: -16%

Question: For `Cc1c(C(=O)N2CCCC2)oc2c1-c1nn(CC(=O)NCc3ccc(OC(C)C)cc3)cc1CC2`, which Potency is on record?
Answer: inconclusive: 3.55 µM [inhibitor, partial curve, poor fit]

Question: For `COc1ccc2nc(/N=C/c3c(C)[nH]n(-c4ccc(C)cc4C)c3=O)sc2c1`, which Potency is on record?
Answer: inconclusive: 35.5 µM [inhibitor, single point]

Question: Which Potency does the source give for `O=C(Nc1cc(Sc2ccccn2)cc([N+](=O)[O-])c1)c1cccc(F)c1` here?
Answer: active: 11.2 µM

Question: With `CN(CC(=O)Nc1cccc(F)c1)C(=O)c1cccc(S(=O)(=O)N2CC3(C)CC2CC(C)(C)C3)c1` (configuration not stated) as the compound, how does the Potency read?
Answer: active: 11.2 µM

Question: For `O=C(Nc1ccnn1C1CCN(C/C=C/c2ccccc2)CC1)c1ccccc1`, which “activity, negative = inhibition” value is on record?
Answer: inactive: 1.49%

Question: Which Potency does the source give for `COc1ccc(C2CC(O)(c3ccccc3)Oc3cc(OC)cc(OC)c32)cc1` (configuration not stated) here?
Answer: inconclusive: 35.5 µM [inhibitor, single point]

Question: For `COc1ccc2cc3cc(C(=O)N4CCCCCC4)oc3nc2c1`, which “activity, negative = inhibition” value is on record?
Answer: inactive: 2.71%

Question: For `O=S(=O)(Nc1ccc2c(c1)OCCO2)c1ccc2oc3ccccc3c2c1`, which Potency is on record?
Answer: active: 10 µM

Question: For `Cc1ccc(S(=O)(=O)N2CCCCC2c2cccnc2)c(C)c1C` (configuration not stated), which Potency is on record?
Answer: inconclusive: 11.2 µM [inhibitor, single point]

Question: For `CC(C)(C)NC(=O)NC(=O)COC(=O)C1CCN(S(=O)(=O)c2cccs2)CC1`, which “activity, negative = inhibition” value is on record?
Answer: inactive: -1.14%

Question: Which “activity, negative = inhibition” value does the source give for `CC(C)CN(C(=O)CN(C)CC(=O)Nc1ccc(Cl)c(C(F)(F)F)c1)c1c(N)n(CC(C)C)c(=O)[nH]c1=O` here?
Answer: inactive: -2.5%

Question: With `Cc1ccc(-c2noc(-c3ccc(N4CCOCC4)c([N+](=O)[O-])c3)n2)cc1` as the compound, how does the Potency read?
Answer: inconclusive: 0.112 µM [inhibitor, full curve, poor fit]

Question: Which Potency does the source give for `COc1ccc(NC(=O)CSc2nc3ccccc3nc2N2CCOCC2)c(OC)c1` here?
Answer: inactive

Question: Which Potency does the source give for `Cc1ccccc1CN1C(=O)c2ccccc2S(=O)c2ccc(C(=O)N3CCOCC3)cc21` (configuration not stated) here?
Answer: inconclusive: 5.62 µM [inhibitor, full curve, poor fit]

Question: Which “activity, negative = inhibition” value does the source give for `Cc1ccc2oc(C(=O)N(C)Cc3ccc(C)o3)c(C)c2c1` here?
Answer: inactive: 7.32%

Question: With `Cc1ccc(C(=O)NCC(=O)N2CCN(c3ccccc3O)CC2)s1` as the compound, how does the “activity, negative = inhibition” value read?
Answer: inactive: -2.19%

Question: Which “activity, negative = inhibition” value does the source give for `Cn1c(=O)c2cc(C(=O)NCCCN3CCN(c4ccc(F)cc4)CC3)sc2c2ccccc21` here?
Answer: inactive: 1.3%

Question: Which “activity, negative = inhibition” value does the source give for `CC1(C)N=C(N)N=C(N)N1c1ccc(OCCCOc2ccccc2)c(Cl)c1` here?
Answer: inactive: -30.2%

Question: Which Potency does the source give for `CC1(C)Cc2c(cnn2-c2ccccc2)-c2c1c1ccccc1n2CC(O)CCl` (configuration not stated) here?
Answer: inconclusive: 35.5 µM [inhibitor, single point]

Question: For `COc1ccccc1/C=C1\SC(=S)N(CCC(=O)N2CCN(C)CC2)C1=O`, which Potency is on record?
Answer: inconclusive: 35.5 µM [inhibitor, single point]

Question: For `CN(C)C(=O)CCc1ccc2c3c([nH]c2c1)[C@]1(CCc2ccccc2)[C@@H](C(=O)N2CCCCC2)C[C@H](CC(=O)NCCc2ccccn2)C(=O)N1CC3`, which “activity, negative = inhibition” value is on record?
Answer: inactive: -15.3%

Question: With `COc1ccc(C(=O)/C=C/c2cn(CC(O)CN3CCCCCC3)c3ccccc23)cc1OC` (configuration not stated) as the compound, how does the Potency read?
Answer: inconclusive: 35.5 µM [inhibitor, single point]

Question: Which “activity, negative = inhibition” value does the source give for `Cc1ccc(NC(=O)CN2C(=O)NC3(CCCCCCC3)C2=O)cc1C` here?
Answer: inactive: -5.21%

Question: With `Cc1cccc(C2=NN(c3ccc(Br)cc3)[C@@H](C(=O)N3CCOC3=O)[C@@H]2C)c1` as the compound, how does the Potency read?
Answer: inconclusive: 35.5 µM [inhibitor, single point]

Question: For `CC1CCN(C(=O)Cn2cc(SCC(=O)NCc3ccc(F)cc3)c3ccccc32)CC1`, which Potency is on record?
Answer: inconclusive: 28.2 µM [inhibitor, single point]

Question: Which Potency does the source give for `O=C(NCCCN1CCC(Cc2ccccc2)CC1)c1ccc2nc(N3CCOCC3)sc2c1` here?
Answer: inconclusive: 12.6 µM [inhibitor, single point]

Question: For `COc1ccc(C(=O)/C=C/Sc2nc3ccccc3o2)cc1`, which Potency is on record?
Answer: active: 10 µM

Question: Which Potency does the source give for `COc1cccc(N/N=C/c2cccc(Br)c2O)c1` here?
Answer: inconclusive: 17.8 µM [inhibitor, single point]

Question: For `CCOc1cccc(OCCCCn2ccnc2)c1`, which Potency is on record?
Answer: inconclusive: 0.447 µM [inhibitor, full curve, poor fit]

Question: Which “activity, negative = inhibition” value does the source give for `O=C1COc2ccc(S(=O)(=O)N3CCc4ccccc43)cc2N1` here?
Answer: inactive: -7.26%

Question: For `C#CCOCCOCCOCCNc1nc(N2CCN(C(=O)CCCCCCCCCCNC(=O)[C@@H](CCC(=O)O)n3cc(CCCCCN)nn3)CC2)nc(N2CCN(C(=O)CCCCCCCCCCNC(=O)[C@@H](CCC(=O)O)n3cc(CCCCCN)nn3)CC2)n1`, which Potency is on record?
Answer: inconclusive: 15.8 µM [inhibitor, single point]

Question: For `O=C(COc1ccc(Cl)cc1)NCCCNC(=O)c1ccncc1`, which Potency is on record?
Answer: inconclusive: 10 µM [inhibitor, partial curve, poor fit]

Question: With `Cc1nc(N2CCN(C(=O)c3ccco3)CC2)c(C#N)c2c1CCCC2` as the compound, how does the Potency read?
Answer: inconclusive: 35.5 µM [inhibitor, single point]

Question: With `COc1cc2sc(-c3ccccc3OC)c(-c3ccc(OCCN4CCCCC4)cc3)c2cc1OC` as the compound, how does the Potency read?
Answer: inconclusive: 35.5 µM [inhibitor, single point]

Question: With `C/C(=N\OCC(=O)Nc1cc(C)cc(C)c1)c1ccc2c(c1)OCCO2` as the compound, how does the Potency read?
Answer: inconclusive: 35.5 µM [inhibitor, single point]

Question: Which Potency does the source give for `CC(=O)N1c2ccc(S(=O)(=O)NCC3CCC(C(=O)Nc4cccc(C)n4)CC3)cc2CC1C` (configuration not stated) here?
Answer: inconclusive: 7.08 µM [inhibitor, partial curve, poor fit]

Question: With `CCOC(=O)/C(=N\Nc1ccccc1Cl)N1CC(C)OC(C)C1` (configuration not stated) as the compound, how does the “activity, negative = inhibition” value read?
Answer: inactive: 14.7%

Question: For `Cc1ccc2[nH]c(=O)c(CN(CC3CCCO3)C(=S)Nc3ccccc3)cc2c1` (configuration not stated), which “activity, negative = inhibition” value is on record?
Answer: inactive: -8.04%

Question: Which Potency does the source give for `CC1CCC(C(C)C)C(OC(=O)COC(=O)c2ccc(N)cc2)C1` (configuration not stated) here?
Answer: inconclusive: 15.8 µM [inhibitor, single point]

Question: Which Potency does the source give for `O=C(COc1ccc2oc3c(c2c1)CCCC3)Nc1cccc(Br)c1` here?
Answer: inconclusive: 20 µM [inhibitor, partial curve, poor fit]

Question: With `CC(CC(=O)Nc1cccc(S(=O)(=O)N2CCCCC2)c1)c1ccccc1` (configuration not stated) as the compound, how does the “activity, negative = inhibition” value read?
Answer: inactive: -24.1%

Question: With `CCOC(=O)C1=C(C)N=C2SC(C(=O)OC)=CC(=O)N2C1c1ccc(F)cc1` (configuration not stated) as the compound, how does the Potency read?
Answer: inconclusive: 12.6 µM [inhibitor, single point]

Question: For `O=C(O)c1ccccc1/C=N/NC(=S)NC1CCCCC1`, which “activity, negative = inhibition” value is on record?
Answer: inactive: 13.1%

Question: With `O=C(Nc1ccc(NC(=O)C2CC2)nc1)c1cccs1` as the compound, how does the Potency read?
Answer: inconclusive: 35.5 µM [inhibitor, partial curve, poor fit]

Question: Which Potency does the source give for `Fc1cccc(Cc2c(C3CCCCC3)nc3ccc(Br)cn23)c1` here?
Answer: inconclusive: 35.5 µM [inhibitor, single point]

Question: For `O=C(Nc1ccncc1)c1cccc(S(=O)(=O)N2CCCC2)c1`, which “activity, negative = inhibition” value is on record?
Answer: inactive: 1.28%

Question: With `O=C1OCCN1C(=O)[C@H]1[C@H](c2ccc(Cl)cc2)C(c2ccc(F)cc2)=NN1c1ccccc1` as the compound, how does the Potency read?
Answer: inconclusive: 35.5 µM [inhibitor, single point]

Question: For `CCN(c1ccccc1)S(=O)(=O)c1ccc(C(=O)NCC(=O)Nc2ccc(F)c(F)c2F)cc1`, which Potency is on record?
Answer: inconclusive: 17.8 µM [inhibitor, single point]

Question: For `O=C(Nc1cccc([N+](=O)[O-])c1)Nc1cccc([N+](=O)[O-])c1`, which “activity, negative = inhibition” value is on record?
Answer: inactive: -28.5%

Question: With `COc1ccc(NS(=O)(=O)c2cnc(N)nc2)cc1Cl` as the compound, how does the “activity, negative = inhibition” value read?
Answer: inactive: -17.6%

Question: With `O=C(N[C@@H](c1ccccc1)[C@H](O)c1ccccc1)[C@@H]1CCCN1C(=O)OCc1ccccc1` as the compound, how does the Potency read?
Answer: inactive

Question: With `CC(C)n1cnc2c(NCc3ccccc3)cc(OCC3CCN(C)CC3)cc21` as the compound, how does the Potency read?
Answer: inconclusive: 35.5 µM [inhibitor, single point]

Question: For `CC(C)C[C@H]1CN([C@@H](Cc2ccc(O)cc2)CN2CCC[C@@H]2CN2C(=O)C(=O)NC[C@@H]2Cc2ccccc2)C(=O)C(=O)N1CC1CCCCCC1`, which Potency is on record?
Answer: inconclusive: 35.5 µM [inhibitor, single point]

Question: With `Cc1cc(C)c2c(c1)NC(c1cc3c(cc1Br)OCO3)C1CC=CC21` (configuration not stated) as the compound, how does the Potency read?
Answer: inconclusive: 12.6 µM [inhibitor, single point]

Question: For `O=C(c1ccc(S(=O)(=O)Cc2ccccc2F)c([N+](=O)[O-])c1)N1CCCCCC1`, which Potency is on record?
Answer: inconclusive: 22.4 µM [inhibitor, single point]

Question: For `COc1ccc(OC)c(Nc2c3ccccc3nc3ccccc23)c1`, which Potency is on record?
Answer: active: 12.6 µM

Question: With `COc1cc(/C=N/N=C(N)N)ccc1OCc1ccc(Cl)cc1` as the compound, how does the Potency read?
Answer: inconclusive: 22.4 µM [inhibitor, single point]

Question: Which Potency does the source give for `Cn1ccc2c(-c3ccccc3F)cc3c(c21)C1CCC3C1` (configuration not stated) here?
Answer: inconclusive: 35.5 µM [inhibitor, partial curve, poor fit]
